The other results are listed elsewhere or left out.
B1: chr4:140442261:140443444:-|three_prime_utr|ENSG00000205301|control|control|control (ssRNA)
RNA: GGGAGUUCUACAGUCCGACGAUCCUCUGUAAUACCUGGAACCUCAGAUAACCUUGAUAUCUAAUGGCAUGUUUCAGAAAUUGUAGUAAUGAAAAUACAUAAUUAUCUAGCAGAUAAGUAAACAAUGCAUAAACUAGUAGACUUCAACAGAGGAUUGAGCAUCA
B2: chr11:102693905:102694065:-|CDS|ENSG00000137675|control|control|control (ssRNA)
RNA: GGGAGUUCUACAGUCCGACGAUCCUUGCCAGAUUAUCCCAAAUCCAUCCAUACAUUAGGUUUUCCAGGACGUGUGAAGAAAAUAGAUGCAGCCGUCUGUGAUAAGACCACAAGAAAAACCUACUUCUUUGUGGGCAUUUGGUGCAACAGAGGAUUGAGCAUCA
B3: ENSG00000124766:be:win_2101|3pUTR|ENSG00000124766|bound_else_gene|NA|bound_elsewhere_windowed (ssRNA)
RNA: GGGAGUUCUACAGUCCGACGAUCUGCCCCCUCUGCAGCCGGAGGAGGAGAUGUUGAGGGGAGGAGGCCAGCCAGUGUGACCGGCGCUAGGAAAUGACCCGAGAACCCCGUUGGAAGCGCAGCAGCGGGAGCUAGGGGCGGGGGCAACAGAGGAUUGAGCAUCA
B4: chr4:102887774:102887875:+|3pUTR|ENSG00000145354|msi1|FALSE|unique (ssRNA)
RNA: GGGAGUUCUACAGUCCGACGAUCUUGGUUUUGAUAAUCUGAAGUGUUUUUUUCUCGUUUUGGCCUUCCAAACUGCAUUUGGUUAGGUGAAUUAAGAAAAAUAUUGCCAUCAAGAAUUACUUGUGUUUUCACAGAGAUAGACUCCAACAGAGGAUUGAGCAUCA
B5: chr5:38883864:38883977:+|CDS|ENSG00000145623|unk|FALSE|unique (ssRNA)
RNA: GGGAGUUCUACAGUCCGACGAUCGUUUUCCCUAAAGAUAAGCUGGUGGAAGAAGGCACCAAUGUUACCAUUUGUUACGUUUCUAGGAACAUUCAAAAUAAUGUAUCCUGUUAUUUGGAAGGGAAACAGAUUCAUGGAGAACAACAACAGAGGAUUGAGCAUCA
B6: chr14:90848141:90848242:-|3pUTR|ENSG00000100784|unk|FALSE|unique (ssRNA)
RNA: GGGAGUUCUACAGUCCGACGAUCCGAUAACUGGUACUGCCUUUGAUUAAAGGUGAGCUAUAUGGAGUUAAGCAUUUUUAUACUAGUAACUAUUUAUUGAGAAUUUUCAGAAUUCUAUAGCUACUUGUCUUUAACAGUUAUAAGCAACAGAGGAUUGAGCAUCA
B7: chr11:95131931:95132033:+|3pUTR|ENSG00000149218|unk|total|mutant (ssRNA)
RNA: GGGAGUUCUACAGUCCGACGAUCGGACCGGUGGCUGAGACCCACUGCCCUGAGCUACCCGUGUGGCUGUGCCUGUGGGUCUCCCGAACCAUCUGCAUUGGACGUGAAGCCACAGCAGGUGGCUGGACUGCUGGCCUGUUCCUACAACAGAGGAUUGAGCAUCA
B8: chr20:2117184:2117286:+|CDS|ENSG00000125834|unk|FALSE|unique (ssRNA)
RNA: GGGAGUUCUACAGUCCGACGAUCGCUCCUGGGGACCUACAUUAAACAGGGGACUGAGAUCGUCCCUGUUGGUGAGGCGCUGCUAGAAAACCCAAAGAUGGAGUUGCACAUCCCCCAAAAACGCAGGACUUCCAUGUCUGAGGGCAACAGAGGAUUGAGCAUCA
B9: chr16:67638976:67639077:+|3pUTR|ENSG00000102974|unk|total|mutant (ssRNA)
RNA: GGGAGUUCUACAGUCCGACGAUCAAACACUUUUUUCUUCUGUGUAUUGCUUUUAAGAGAGCCAUCAGUCCGCUAUCAGACUCCCGGUUGAUGCAUUUUGUACUCCGCUGUACUGUGUGAUAUUUUUCAUUAUUUCCGGACGCCCAACAGAGGAUUGAGCAUCA
B10: chr1:28742582:28742694:+|CDS|ENSG00000198492|unk|FALSE|bound_elsewhere (ssRNA)
RNA: GGGAGUUCUACAGUCCGACGAUCAGCAACGGAGAGCCCCACUUCCUACCAGAUGCAAUGUUUGGGCAACCAGGAGCCCUAGGUAGCACUCCAUUUCUUGGUCAGCAUGGUUUUAAUUUCUUUCCCAGUGGGAUUGACUUCUCACAACAGAGGAUUGAGCAUCA
B11: ENSG00000107863:be:win_2401|CDS|ENSG00000107863|bound_else_gene|NA|bound_elsewhere_windowed (ssRNA)
RNA: GGGAGUUCUACAGUCCGACGAUCUUGGCUUCCAUCCCAUUUAUAGAUGAACCAACUAGCCCUAGCAUUGAUCAUGAUAUUGCACAUAUCCCUGCCUCUGCUGUUAUAUCAGCCUCUACCUCUCAGGUCCCCUCCAUAGCAACACAACAGAGGAUUGAGCAUCA
B12: chr14:100881274:100881386:-|CDS|ENSG00000254656|unk|total|mutant (ssRNA)
RNA: GGGAGUUCUACAGUCCGACGAUCCGCAGGCAGCAGCAUCACGACAGCCAUCACCCAGCUGCUCACCCAGAUGCCCGCUCUCGCCGGUGCAAACACCAUCCCAGCCCAGGAGCUGGCUGAGCUGUUCCUGGGCCCUGGCCGCUGCAACAGAGGAUUGAGCAUCA
B13: chr19:21971193:21974807:-|CDS|ENSG00000160321|control|control|control (ssRNA)
RNA: GGGAGUUCUACAGUCCGACGAUCCACAAGAAAAUUCAUACUGGAGAGAAACCCUACAAAUGUGAAGAAUGUGGCAAAGCCUUUAGUACGUUCUCAAUCCUCACUAAACAUAAGGUAAUUCAUACUGGAGAGAAACCCUACAAACAACAGAGGAUUGAGCAUCA
B14: chr6:145799413:145799514:-|3pUTR|ENSG00000118496|msi1|FALSE|bound_elsewhere (ssRNA)
RNA: GGGAGUUCUACAGUCCGACGAUCUUAUCUCACAUACUUACAACUCAACACACAGAGUGACCAUGUGCAGCUUUCUUUUUUGUUAGAUGCCACAUCCGAAGACUCAUCGCAGUGUGUUAUAUGACAGGACAAAGCAAAAACAAACAACAGAGGAUUGAGCAUCA
B15: chr10:17315694:17315795:-|3pUTR|ENSG00000148488|unk|FALSE|unique (ssRNA)
RNA: GGGAGUUCUACAGUCCGACGAUCCUUCUUCCUCCCUGUCCAUCCCACCCUCGUCCCCAGAAAAUUCCUAAUCUGUUUUUCUAUAGACAUUUACAUUUUUACACUAUAGACUGUUUACAUUUUUUAGAAUUUUAUAUAAAUGGACAACAGAGGAUUGAGCAUCA
B16: chr9:101390585:101390694:-|CDS|ENSG00000136897|unk|FALSE|unique (ssRNA)
RNA: GGGAGUUCUACAGUCCGACGAUCUAAUUGGCAAGACAUCUCCCUGGAAGAUAGUCGUCUAAAGUUCAAUCUUCUGGCUCAUUUAGCUGAUGACUUGGGUCAUGUAGUCCCUAACUCCAGACUCCACCAGAUGUGCAGGGUUAGCAACAGAGGAUUGAGCAUCA
B17: chr10:87746157:87746259:+|3pUTR|ENSG00000198682|unk|FALSE|unique (ssRNA)
RNA: GGGAGUUCUACAGUCCGACGAUCAACUGAAGACCAAAUCUUAGCAGGUAAAAGCAAUAUUCUUAUACAUUUCAUAAUAAAAUUAGCUCUAUGUAUUUUCUACUGCACCUGAGCAGGCAGGUCCCAGAUUUCUUAAGGCUUUGUCAACAGAGGAUUGAGCAUCA
B18: chr3:25618756:25618858:-|CDS|ENSG00000077097|unk|FALSE|unique (ssRNA)
RNA: GGGAGUUCUACAGUCCGACGAUCUAUAUAAGUUAAAAUACCAGUACAGAUCUAUAUGAUCUGCAAAGUAUAUGUGUUUUGCUUAGGUACUUUUUGAUCAUAUGGGAUGUCUGAAGAAAUAUGAAACUGUGCAAGACAUUCUGACAACAGAGGAUUGAGCAUCA
B19: chr3:48857559:48857660:-|3pUTR|ENSG00000178537|unk|total|mutant (ssRNA)
RNA: GGGAGUUCUACAGUCCGACGAUCGGCUGAAGGCUGCUCAAGUUCACUUCUGGAUGCUGGAAGCUGUCGUUGAGGAGAAGGAGCCGUAAGCAGAACUAAGCAGUCUUGGAGGGCAAGGGGAGGGGAAUGGUGAGAUCCGAGCCCCAACAGAGGAUUGAGCAUCA
B20: chr19:18929200:18929442:-|three_prime_utr|ENSG00000051128|control|control|control (ssRNA)
RNA: GGGAGUUCUACAGUCCGACGAUCCGGGGCUGGUUUUCUAUGAACGAUUCCGGCCUGGGAUGCGGGCCAGGCUGCAGGCGGCAUAGUUGGGCCCAUUCGUCCUGGAAAGGGACUGGGGGGUCCCAACUUAGCCCUGGGUGGGCCCAACAGAGGAUUGAGCAUCA
B21: chr17:42200006:42200107:-|3pUTR|ENSG00000173757|unk|FALSE|unique (ssRNA)
RNA: GGGAGUUCUACAGUCCGACGAUCAAGCUGCCGUUUGCCUUGGCUUGGUUUCAUACACUGAUUUAUUUUUCUAUGCCAGGCAGUAGAGUCUCUCUGCCUCUGAGGAGCAGGCUACCCGCAUCCCACUCAGCCCCUCCCUACCCCCAACAGAGGAUUGAGCAUCA
B22: chr1:201892154:201892255:+|3pUTR|ENSG00000198892|msi1|FALSE|unique (ssRNA)
RNA: GGGAGUUCUACAGUCCGACGAUCUGUUUGUCCCCUCUGGGCUGGGGUGGGGGGAGGGAGGAGGUUCCGUCAGCAGCUGGCAGUAGCCCUCCUCUCUGGCUGCCCCACUGGCCACAUCUCUGGCCUGCUAGAUUAAAGCUGUAACAACAGAGGAUUGAGCAUCA

What follows are binders tested against MSI1 full-length (mouse, UniProt Q61474 1-362) (assay: nsRBNS (natural sequence RNA bind-n-seq); RBNS binding buffer (assumed for nsRBNS): 25 mM Tris pH 7.5, 150 mM KCl, 3 mM MgCl2, 0.01% Triton X-100, 500 ug/ml BSA, 20 U/ml SUPERase-In, 4 C; UNK is unkempt and MSI1 is Musashi-1; names of the RNAs are library labels; protein concentration not given here; high values mean tight binding).
UniProt Q61474, sequence (Q61474 whole entry): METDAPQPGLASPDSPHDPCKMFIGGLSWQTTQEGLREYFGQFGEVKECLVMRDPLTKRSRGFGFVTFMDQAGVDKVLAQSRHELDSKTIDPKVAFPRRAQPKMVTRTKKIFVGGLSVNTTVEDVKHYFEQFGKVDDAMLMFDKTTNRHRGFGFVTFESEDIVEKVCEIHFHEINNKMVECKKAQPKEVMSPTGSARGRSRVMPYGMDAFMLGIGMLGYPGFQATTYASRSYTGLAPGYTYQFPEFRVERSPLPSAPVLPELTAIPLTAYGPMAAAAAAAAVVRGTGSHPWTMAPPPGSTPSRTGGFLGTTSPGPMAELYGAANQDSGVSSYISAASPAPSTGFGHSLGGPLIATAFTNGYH

Binder	binding signal [enrichment R]
B1	4.02
B2	0.487
B3	0.718
B4	0.272
B5	0.298
B6	2.7
B7	0.283
B8	0.66
B9	0.321
B10	0.505
B11	4.65
B12	0.367
B13	0.37
B14	0.29
B15	10.8
B16	0.481
B17	8.56
B18	0.461
B19	0.595
B20	0.406
B21	0.714
B22	0.871
